This is one part of the list.

From article PMC12136788 come the findings set out here.

To fix the notation:
B1: chr10:95611293:95611394:-|CDS|ENSG00000059573|msi1|FALSE|bound_elsewhere (ssRNA)
RNA: GGGAGUUCUACAGUCCGACGAUCCCCCUCCGAAGUGAAGUCACUCCGAACUGAGUAUGGGGACCUGGAAUUAUGCAUUGAAGUAGUGGACAACGUUCAGGAUGCCAUUGACCACAUCCACAAGUAUGGCAGCUCCCACACGGACAACAGAGGAUUGAGCAUCA
B2: chr14:60713409:60714203:-|CDS|ENSG00000100625|control|control|control (ssRNA)
RNA: GGGAGUUCUACAGUCCGACGAUCUUCUGAGAGCAAAGCAACAAGUAGCUUAAUGAUGCUGGACUCUAAAUCCAAGUAUGUCUUAGAUGGCAUGGUUGAUACUGUCUGUGAAGACCUGGAAACAGACAAAAAAGAGCUUGCCAACAACAGAGGAUUGAGCAUCA
B3: ENSG00000136451:be:win_751|CDS|ENSG00000136451|bound_else_gene|NA|bound_elsewhere_windowed (ssRNA)
RNA: GGGAGUUCUACAGUCCGACGAUCGUAAAACAUGUCCAUUCAACAGAAAGACCCUUCAAAUGCCAAACGUGCACUGCUGCCUUUGCCACCAAAGACAGACUGCGGACACACAUGGUGCGCCAUGAAGGCAAGGUAUCAUGUAACCAACAGAGGAUUGAGCAUCA
B4: chr1:9729132:9729211:-|3pUTR|ENSG00000171603|msi1_unk|total|mutant (ssRNA)
RNA: GGGAGUUCUACAGUCCGACGAUCCCGUUCUGAGGACACUGGUGGCUGUGCUAUGUGUGGCCAUCCUCCAUGUCCCGUCCCUGCCGCUGCUCUGUUCCGACAGCGGACAGACGCUCACGCCCAGGGGAUGUCCUCACGCUGUCGCAACAGAGGAUUGAGCAUCA
B5: chr17:28327902:28328001:+|3pUTR|ENSG00000109084|msi1_unk|FALSE|overlapping (ssRNA)
RNA: GGGAGUUCUACAGUCCGACGAUCUCCCUGUAUCUGAAGUCUAGCAUCUCAAGGCUGAUCUGGAAGUGUGCUAGUAUGCUCCCUAGUGGAUAACUUAAUCUUUUAAUACAGUUCCGUCAUUCCCAUCUUGUUUUCAGAAGAGAACAACAGAGGAUUGAGCAUCA
B6: ENSG00000198589:be:win_3651|CDS|ENSG00000198589|bound_else_gene|NA|bound_elsewhere_windowed (ssRNA)
RNA: GGGAGUUCUACAGUCCGACGAUCCCUCACUAGAGAAACCAAAUUAAUUAAUGAUUGUCAUGGUAGUGUCUCUGAGGCUUCUUCUGAGCAAAAGAUUGCGAAGUUGGAUGUUUCCAAUGUUGCUACAGAUACUGAGAGGCUGGACAACAGAGGAUUGAGCAUCA
B7: chr20:57651677:57651767:-|3pUTR|ENSG00000124225|msi1_unk|FALSE|overlapping (ssRNA)
RNA: GGGAGUUCUACAGUCCGACGAUCGUUGAGCUGUGUCUUGAAGGCAAAAGAAAAAAAAUUUCUACAGUAGUCUUUCUUGUUUCUAGUUGAGCUGCGUGCGUGAAUGCUUAUUUUCUUUUGUUUAUGAUAAUUUCACUUAACUUUCAACAGAGGAUUGAGCAUCA
B8: chr22:20142972:20143073:+|CDS|ENSG00000099904|msi1|total|mutant (ssRNA)
RNA: GGGAGUUCUACAGUCCGACGAUCGGGGAUCAUGUGGCCCUGCAGCCCCUGCGCUCUGAGGGGGGGCCCCCCACGCCCCACCGCCGCAUUUUUGCCCCCCAUGCACUGCCCAACCGCAACGGCAGCCUGUCCUAUGACAGCCUGCAACAGAGGAUUGAGCAUCA
B9: chrX:85271413:85271529:+|CDS|ENSG00000147180|unk|FALSE|unique (ssRNA)
RNA: GGGAGUUCUACAGUCCGACGAUCUGUGAUAAAGGUUUUCAUCGUCCUUCUGAGCUCAAAAAGCAUAGUGAUAUCCAUAAGGGUAGGAAGAUUCAUCAGUGCAGGCACUGUGACUUUAAAACAUCCGAUCCAUUUAUUCUUAGUCAACAGAGGAUUGAGCAUCA
B10: chr22:40825413:40825514:-|3pUTR|ENSG00000100380|msi1|FALSE|bound_elsewhere (ssRNA)
RNA: GGGAGUUCUACAGUCCGACGAUCGGUAAUACCCACAACAACUGUAGUUUCUUACUUGGCCAAGAGAAUGCUUAUUUAAGUGUUAGACUUCCAUUCUGGCAAAAUCUUGCCUUAUCAGAAGACAUUGGAAAGAGGGAUUCCCUUCAACAGAGGAUUGAGCAUCA
B11: ENSG00000106799:stop:overlap|stop_codon|ENSG00000106799|stop_codon|NA|stop_codon (ssRNA)
RNA: GGGAGUUCUACAGUCCGACGAUCGCAAGCUGCUUGAGAGCAGCCUUGUAUUCCCAGCAUCCAUCACAGUGCCUAAUACAUGGUAGAUCCUCAGUAGAUAUUUGUUGAGUCCAUGAGUCUUCAAAAGAACUUAAUUAGGUACAUCAACAGAGGAUUGAGCAUCA
B12: chr8:43200960:43201061:+|3pUTR|ENSG00000165102|unk|FALSE|unique (ssRNA)
RNA: GGGAGUUCUACAGUCCGACGAUCCAAAUUCUAAGUGUUUUCUCUUUAGGUUUCCCUGGCUUUGUGAAUGGAUCAUGUGUCUCUAGGUAUAAACCUGACAUCAUCUUUCCACCCGGCUUACCUCCACCAGAUCUCCCCAGUUCUCAACAGAGGAUUGAGCAUCA
B13: chr15:89477516:89477653:-|CDS|ENSG00000140519|control|control|control (ssRNA)
RNA: GGGAGUUCUACAGUCCGACGAUCCCGGCUGCACAUCCAGGACACAUGUGGCAUUAACAAUCUGCAUGGCAUUCCUGGCAUCAUAGGCGGCAUCGUGGGUGCUGUGACAGCGGCCUCCGCCAGCCUUGAAGUCUAUGGAAAAGACAACAGAGGAUUGAGCAUCA
B14: chr17:79086671:79086772:+|3pUTR|ENSG00000167280|msi1|total|mutant (ssRNA)
RNA: GGGAGUUCUACAGUCCGACGAUCACCGGCUGCAAGAUGCUGAUGCCGAGAAUGAUGAUUUUCUUUCCUGCAGAUGAAACUAUCCGAAAGGGUCUCCGAUUGUGGCAGGCCGGCUUUGGAGCAGGCGCCGAGACAUUUCUGAGCCAACAGAGGAUUGAGCAUCA
B15: chr10:89213657:89213758:-|3pUTR|ENSG00000107798|msi1|FALSE|unique (ssRNA)
RNA: GGGAGUUCUACAGUCCGACGAUCUUACAAUACUGUCCGGUGGACAAAAUGACAAUUGAUAUGUUUUUCUGAUAUAAUUACUUUAGCUGCACUAACAGUACAAUGCUUGUUAAUGGUUAAUAUAGGCAGGGCGAAUACUACUUUCAACAGAGGAUUGAGCAUCA
B16: chr5:40945159:40945374:+|CDS|ENSG00000112936|unk|total|mutant (ssRNA)
RNA: GGGAGUUCUACAGUCCGACGAUCGAAUUUUACAACCGUACUUGGUCUUAUGUAAAACAUACGUCGACAGAACACACAUCAUCCCGUCGGAAGCGCUCCUUUUUCCGAUCUUCAUCAUCUUCUUCACGCAGUUAUACUUCACAUCAACAGAGGAUUGAGCAUCA
B17: ENSG00000159164:stop:overlap|stop_codon|ENSG00000159164|stop_codon|NA|stop_codon (ssRNA)
RNA: GGGAGUUCUACAGUCCGACGAUCUUGCAUCCUGGAAUGCGCUGGACGUGUUGACUGUUGAACUCUACCCCUCAGACAAGAGGUAGUUGGAAUGUGUUGGAGGCAGGGCAGUGGAUUCAGGGGAGGGGUGGGGUGAGGAAGGAGCAACAGAGGAUUGAGCAUCA
B18: chr8:58582127:58582250:+|3pUTR|ENSG00000137575|unk|total|mutant (ssRNA)
RNA: GGGAGUUCUACAGUCCGACGAUCUUCAUAUUACUUCCGUUCUACCGCAUACUUGCAUCUUUAACAUGCUAUCACCGUACAUUCCGAAUGAUUGCCUUUGAUUUUUUUUUUAAAUUCUGUGUGUGUGUGUGUAAAAUGCCAAUUCAACAGAGGAUUGAGCAUCA
B19: chr16:66721972:66722075:-|3pUTR|ENSG00000135720|unk|FALSE|unique (ssRNA)
RNA: GGGAGUUCUACAGUCCGACGAUCUUUUUAAUUCAGUUUUUUAAAAAAACAAAUGUAUUGUGGCUUCCAGUUACCAGGUUGUCUAGGUAAUGACAGUAAACUGACUGUAGAAUGAUAAUUGUGGUAUAGUGACCAAUAGAUGCCCAACAGAGGAUUGAGCAUCA
B20: chr4:138171744:138171845:-|3pUTR|ENSG00000151012|msi1|FALSE|unique (ssRNA)
RNA: GGGAGUUCUACAGUCCGACGAUCAGGAGUCAGUUAUUUUUAUUCAUAUAUUUUAGCAUAUUCGAACUAAUUUCUAAGAAAUUUAGUUAUAACUCUAUGUAGUUAUAGAAAGUGAAUAUGCAGUUAUUCUAUGAGUCGCACAAUCAACAGAGGAUUGAGCAUCA
B21: chr7:73736928:73737391:-|CDS|ENSG00000106077|control|control|control (ssRNA)
RNA: GGGAGUUCUACAGUCCGACGAUCGGUAGAGGUAGACGGGCGCUUCGUGUGGAGGGUGAACUUGGAUGCCCUGACCCAGCACCUAGACAAGAUCUUGGCUUUCCCACAGAGGCAGGAGUCCUACCUCGGGCCAACACUCUUUCUCAACAGAGGAUUGAGCAUCA
B22: chr12:39619279:39619382:-|CDS|ENSG00000173208|unk|total|mutant (ssRNA)
RNA: GGGAGUUCUACAGUCCGACGAUCCGAGACCAUUUGUGAAAAACCUUCGCCUGGAGUGAAUGCAGAUUUCUUCAAACAGCUACCCGAACUUCGGAAAAUUUUGUUUCCAAAACUUGUGACCACUGAAACAGGGUGGCUCUGCCUCAACAGAGGAUUGAGCAUCA

In this test the target is T1, UNK ZnF1-6 (called full-length) (human, UniProt Q9C0B0 30-357).
T1 sequence: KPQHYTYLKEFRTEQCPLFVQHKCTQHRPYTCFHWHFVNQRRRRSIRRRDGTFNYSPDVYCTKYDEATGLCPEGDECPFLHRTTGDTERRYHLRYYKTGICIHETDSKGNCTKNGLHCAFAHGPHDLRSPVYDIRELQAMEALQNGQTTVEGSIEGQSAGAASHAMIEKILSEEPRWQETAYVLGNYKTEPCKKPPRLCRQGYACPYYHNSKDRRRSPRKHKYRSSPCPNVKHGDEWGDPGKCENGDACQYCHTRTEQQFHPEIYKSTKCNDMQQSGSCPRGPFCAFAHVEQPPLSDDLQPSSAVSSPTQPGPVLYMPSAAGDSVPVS
Nature of the test: nsRBNS (natural sequence RNA bind-n-seq); RBNS binding buffer (assumed for nsRBNS): 25 mM Tris pH 7.5, 150 mM KCl, 3 mM MgCl2, 0.01% Triton X-100, 500 ug/ml BSA, 20 U/ml SUPERase-In, 4 C; UNK is unkempt and MSI1 is Musashi-1; names of the RNAs are library labels; protein concentration not given here; high values mean tight binding.
The molecule B1 gave a binding signal of 0.526 enrichment R.

Consider B2, for which the binding signal worked out at 0.412 enrichment R.

Turning to B3, the binding signal stood at 0.476 enrichment R.

The molecule B4 came in with a binding signal of 0.538 enrichment R.

In turn, B5 yielded a binding signal of 1.2 enrichment R.

Regarding B6, the binding signal worked out at 1.45 enrichment R.

B7 had a binding signal of 1.22 enrichment R.

B8 yielded a binding signal of 0.715 enrichment R.

B9 returned a binding signal of 0.514 enrichment R.

For B10, the binding signal is 0.252 enrichment R.

On to B11, for which the binding signal came to 1.07 enrichment R.

The molecule B12 showed a binding signal of 0.573 enrichment R.

As to B13, the binding signal was 0.419 enrichment R.

On to B14, for which the binding signal worked out at 0.592 enrichment R.

B15: the binding signal stood at 0.664 enrichment R.

In turn, B16 returned a binding signal of 0.468 enrichment R.

Molecule B17 yielded a binding signal of 0.426 enrichment R.

Molecule B18 registered a binding signal of 0.76 enrichment R.

B19 registered a binding signal of 1.06 enrichment R.

B20 gave a binding signal of 0.976 enrichment R.

Consider B21, for which the binding signal came to 0.812 enrichment R.

For B22, the binding signal stood at 0.434 enrichment R.
